# Results: article PMC9911399, “Two distinct binding modes provide the RNA-binding protein RbFox with extraordinary sequence specificity”
# Where a chain is given by its changes, count along the chain named. The list shows a part of the results.
# T1: RBFOX1 RRM RbFoxmut (Fox-RRM*) (Homo sapiens, UniProt Q9NWB1 109-208, R118D;E147R;N151S;E152T)
# T1 sequence: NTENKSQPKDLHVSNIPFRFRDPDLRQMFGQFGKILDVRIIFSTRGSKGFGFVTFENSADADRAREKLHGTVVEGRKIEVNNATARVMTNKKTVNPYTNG
# B1: CCGAUAG (DNA:RNA)
# RNA: GGGAGACCGGAAUUCAGAUUGUCCCCGAUAGUUAAAUCCCGUCGUAGCCACCA
# DNA 1: CAATCTGAATTCCGGTCTCCC
# DNA 2: TGGTGGCTACGACGGGATT
# B2: UUUAACC (DNA:RNA)
# RNA: B1 RNA with C25U, C26U, G27U, U29A, A30C, G31C
# DNA 1: CAATCTGAATTCCGGTCTCCC
# DNA 2: TGGTGGCTACGACGGGATT
# B3: GACUCUU (DNA:RNA)
# RNA: GGGAGACCGGAAUUCAGAUUGUCCGACUCUUUUAAAUCCCGUCGUAGCCACCA
# DNA 1: CAATCTGAATTCCGGTCTCCC
# DNA 2: TGGTGGCTACGACGGGATT
# B4: GAGGCUC (DNA:RNA)
# RNA: B3 RNA with C27G, U28G, U31C
# DNA 1: CAATCTGAATTCCGGTCTCCC
# DNA 2: TGGTGGCTACGACGGGATT
# B5: CUCCCCC (DNA:RNA)
# RNA: B3 RNA with G25C, A26U, U28C, U30C, U31C
# DNA 1: CAATCTGAATTCCGGTCTCCC
# DNA 2: TGGTGGCTACGACGGGATT
# B6: CUUAAGC (DNA:RNA)
# RNA: B1 RNA with C26U, G27U, U29A, A30G, G31C
# DNA 1: CAATCTGAATTCCGGTCTCCC
# DNA 2: TGGTGGCTACGACGGGATT
# B7: CCCGUCU (DNA:RNA)
# RNA: B1 RNA with G27C, A28G, A30C, G31U
# DNA 1: CAATCTGAATTCCGGTCTCCC
# DNA 2: TGGTGGCTACGACGGGATT
# B8: GUACACU (DNA:RNA)
# RNA: B3 RNA with A26U, C27A, U28C, C29A, U30C
# DNA 1: CAATCTGAATTCCGGTCTCCC
# DNA 2: TGGTGGCTACGACGGGATT
# B9: UGGAACA (DNA:RNA)
# RNA: B1 RNA with C25U, C26G, U29A, A30C, G31A
# DNA 1: CAATCTGAATTCCGGTCTCCC
# DNA 2: TGGTGGCTACGACGGGATT
# B10: UACAAUC (DNA:RNA)
# RNA: B3 RNA with G25U, U28A, C29A, U31C
# DNA 1: CAATCTGAATTCCGGTCTCCC
# DNA 2: TGGTGGCTACGACGGGATT
# B11: CGUUAUC (DNA:RNA)
# RNA: B3 RNA with G25C, A26G, C27U, C29A, U31C
# DNA 1: CAATCTGAATTCCGGTCTCCC
# DNA 2: TGGTGGCTACGACGGGATT
# B12: CAGCUCA (DNA:RNA)
# RNA: B1 RNA with C26A, A28C, A30C, G31A
# DNA 1: CAATCTGAATTCCGGTCTCCC
# DNA 2: TGGTGGCTACGACGGGATT
# B13: AUUAGUG (DNA:RNA)
# RNA: B1 RNA with C25A, C26U, G27U, U29G, A30U
# DNA 1: CAATCTGAATTCCGGTCTCCC
# DNA 2: TGGTGGCTACGACGGGATT
# B14: GAAAUAU (DNA:RNA)
# RNA: B1 RNA with C25G, C26A, G27A, G31U
# DNA 1: CAATCTGAATTCCGGTCTCCC
# DNA 2: TGGTGGCTACGACGGGATT
# B15: GCAAAGU (DNA:RNA)
# RNA: B1 RNA with C25G, G27A, U29A, A30G, G31U
# DNA 1: CAATCTGAATTCCGGTCTCCC
# DNA 2: TGGTGGCTACGACGGGATT
# B16: GUCAUAG (DNA:RNA)
# RNA: B1 RNA with C25G, C26U, G27C
# DNA 1: CAATCTGAATTCCGGTCTCCC
# DNA 2: TGGTGGCTACGACGGGATT
# B17: UCCAGAU (DNA:RNA)
# RNA: B1 RNA with C25U, G27C, U29G, G31U
# DNA 1: CAATCTGAATTCCGGTCTCCC
# DNA 2: TGGTGGCTACGACGGGATT
# B18: CACUCGU (DNA:RNA)
# RNA: B3 RNA with G25C, U30G
# DNA 1: CAATCTGAATTCCGGTCTCCC
# DNA 2: TGGTGGCTACGACGGGATT
# B19: GACGGCC (DNA:RNA)
# RNA: B3 RNA with U28G, C29G, U30C, U31C
# DNA 1: CAATCTGAATTCCGGTCTCCC
# DNA 2: TGGTGGCTACGACGGGATT
# B20: UAGUCCU (DNA:RNA)
# RNA: B3 RNA with G25U, C27G, U30C
# DNA 1: CAATCTGAATTCCGGTCTCCC
# DNA 2: TGGTGGCTACGACGGGATT
# Target: T1, RBFOX1 RRM RbFoxmut (Fox-RRM*)
# Assay: EMSA; HiTS-Eq, 1 nM pool, 10 min; buffer printed only for the single-RNA assays: 10 mM Tris pH 7.5, 150 mM NaCl, 3.4 mM EDTA, 0.001% NP-40, 30 C
# Settings: tags: His6 N-terminal (pET28a); label: 5' 32P
# Summary of the method: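 A pool of RNA with 7 randomized nucleotides, 5′-radiolabelled and with DNA-annealed flanks, was equilibrated at 1 nM for 10 min in 50 µL with purified RbFox RRM, wild type or mutant, across increasing protein concentrations. Free RNA was separated by 8% native PAGE, excised, reverse-transcribed, barcoded by PCR and sequenced. Relative association constants were obtained from read-count changes of each RNA species versus the control reaction and normalised to the cognate motif.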
row,Binder,binding signal
1,B1,0.0811 KA relative to UGCAUGU
2,B2,0.0651 KA relative to UGCAUGU
3,B3,0.0578 KA relative to UGCAUGU
4,B4,0.0955 KA relative to UGCAUGU
5,B5,0.0382 KA relative to UGCAUGU
6,B6,0.0962 KA relative to UGCAUGU
7,B7,0.079 KA relative to UGCAUGU
8,B8,0.0746 KA relative to UGCAUGU
9,B9,0.123 KA relative to UGCAUGU
10,B10,0.0466 KA relative to UGCAUGU
11,B11,0.11 KA relative to UGCAUGU
12,B12,0.0925 KA relative to UGCAUGU
13,B13,0.162 KA relative to UGCAUGU
14,B14,0.0906 KA relative to UGCAUGU
15,B15,0.0955 KA relative to UGCAUGU
16,B16,0.115 KA relative to UGCAUGU
17,B17,0.0838 KA relative to UGCAUGU
18,B18,0.123 KA relative to UGCAUGU
19,B19,0.147 KA relative to UGCAUGU
20,B20,0.0762 KA relative to UGCAUGU
